# Hit rate of the full screen: of about 46,000 compounds, about 60 (0.1%) were called active. Inconclusive results (about 3%) are left out. The call rests on the fitted dose curve; in most records, active means well fitted inhibition curve with a large enough effect; inconclusive means small, poorly fitted or top-dose-only effect; inactive means no such curve, though single readings can be large or run the other way. Some of the results follow.
# Assay: Primary qHTS assay for Inhibitors of ovarian cancer metastasis using an organotypic tumor microenvironment (TME) model. Further: nearly all actives have a fitted effect of over 65% in size.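 On activity change, negative = inhibition: plate controls were DMSO wells for no effect and tomatine positive control wells for full effect.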
# Details: SKOV3ip1-GFP adhesion/invasion on 3D omental model, fluorescence; series mostly up to 45.8 µM; activity change, negative = inhibition: at the top concentration
# Method in brief: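 qHTS, 4-pt dose (0.36-46 umol/L); SKOV3ip1-GFP, 1,200 cells/well, no FBS; primary omental fibroblast/mesothelial co-culture 48 h pre-grown; 2 h RT + 16 h 37 C; PBS wash, 4% PFA; GFP count 488/509 nm.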
Structure (SMILES),"activity change, negative = inhibition",outcome
Cc1c(C(=O)NCc2ccccc2Br)oc2c1-c1[nH]ncc1CC2,inactive: 13.3%,–
CCc1ccc(S(=O)(=O)c2nnn3c2nc(NC2CCCCCC2)c2sccc23)cc1,inactive: 9.57%,–
COc1ccc(OC)c(NC(=O)N2CCN(S(=O)(=O)c3ccc4c(ccn4C)c3)CC2)c1,inactive: -14.7%,–
COc1ccc(C(CNC(=O)c2oc3ccc(C)cc3c2C)N2CCOCC2)cc1 (centres undefined),inactive: 3.06%,–
COc1ccc(OC)c(NC(=O)Cn2c(=O)n(Cc3ccccc3)c(=O)c3ccccc32)c1,inactive: -15.4%,–
CCn1cc(C(=O)N2CCN(c3cccc(Cl)c3)CC2)c(=O)c2cc(S(=O)(=O)N3CCCCC3)ccc21,inactive: -5.37%,–
O=C(NCc1ccccc1Cl)C(=O)NCC(c1cccs1)S(=O)(=O)c1cccs1 (centres undefined),inactive: -25.6%,–
CCCSCCCNC(=O)C1CCN(c2nn3cc(-c4ccc(F)cc4)nc3s2)CC1,inactive: -5.97%,–
Cc1ccc2nc(-c3ccc(O)cc3)c(Nc3ccc4c(c3)OCCO4)n2c1,inactive: -10.8%,–
CCCn1c(-c2ccc(S(=O)(=O)N3CCOCC3)cc2)csc1=Nc1ccc(OCC)cc1,–,inactive
CC(C)Cn1c(=O)c2ccccc2n2c(CCC(=O)N3CCN(c4ccccc4F)CC3)nnc12,inactive: 3.35%,–
CCOC(=O)c1c(C)oc2ncnc(Nc3ccc(OCC)cc3)c12,inactive: 6.09%,–
Cc1ccc(C)c(N2C(=O)N(Cc3cc(=O)n4ccccc4n3)c3ccccc3S2(=O)=O)c1,inactive: -12%,–
COc1cccc(C(=O)c2sc3nc(-c4ccccc4)cc(C(F)(F)F)c3c2N)c1,inactive: -20.3%,–
COC(=O)c1ccccc1NC(=O)Cn1c(=O)n(Cc2ccc(C(=O)NCc3ccc4c(c3)OCO4)cc2)c(=O)c2ccccc21,–,inactive
Cc1ccc(C)n1-c1nnc(N2CCCC(C(=O)Nc3ccc(C(C)C)cc3)C2)s1 (centres undefined),inactive: -20.5%,–
N#Cc1ccccc1NC(=O)Cn1cnc2onc(-c3cccc(F)c3)c2c1=O,inactive: -10.1%,–
Cn1ccc2cc(S(=O)(=O)N3CCC(C(=O)NCCc4ccccc4)CC3)ccc21,inactive: 1.32%,–
CCCCOc1ccc(C(=O)Nc2ccc(-c3nc4ccccc4s3)cc2C)cc1,inactive: -3.65%,–
COc1cc(C)ccc1OCCSc1nc2ccc(NC(=O)c3ccc(F)cc3)cc2s1,inactive: 2.02%,–
COc1cccc(NC(=O)CNC(=O)Cn2c(C)cc3ccccc3c2=O)c1,–,inactive
Cc1ccc(N(CC(=O)NCCc2ccccc2)S(=O)(=O)N(C)C)cc1,–,inactive
O=C(COc1ccccc1F)Nc1ccc(-c2nc3ccccc3s2)cc1,inactive: -5.58%,–
Cc1ccc(CNC(=O)c2ccc3c(c2)nc(C)n3-c2cc(C)cc(C)c2)cc1,–,inactive

Structure (SMILES),"activity change, negative = inhibition",outcome
CCc1cccc(NC(=O)Nc2csc3c2CCCC3)c1,inactive: -13.1%,–
O=C(CN1C(=O)CCc2cc(S(=O)(=O)N3CCOCC3)ccc21)NCc1ccc(F)cc1,–,inactive
Cc1ccc(C)c(S(=O)(=O)c2cn(Cc3ccccc3)c3cc(F)c(F)cc3c2=O)c1,inactive: -4.36%,–
CNC(=O)c1ccc2c(c1)N=C(C)c1cc(C)ccc1S2,inactive: -4.61%,–
O=C(CSc1nc2cc(C(=O)NC3CCCC3)ccc2c(=O)n1CC1CCCO1)c1ccc(F)cc1 (centres undefined),–,inactive
Cc1ccc(OCC(=O)Nc2ccc3nc(SCC(=O)N4CCCC4)sc3c2)cc1,–,inactive
CC1CCN(c2oc(-c3cccs3)nc2S(=O)(=O)c2ccc(Cl)cc2)CC1,inactive: -1.02%,–
Cc1ccc(CNC(=O)c2ccc(-n3c(C)cc4c3CCCC4)cc2)cc1,inactive: -7.81%,–
COc1ccc2oc(-c3ccc(C)c(NC(=O)c4cccnc4)c3)nc2c1,inactive: 0.492%,–
COc1cc(OC)c(NC(=O)CSc2nccn2C)cc1Cl,–,inactive
O=C(Cn1cc(SCc2cccc(F)c2)c2ccccc21)N1CCOCC1,inactive: -4.22%,–
CCCC(=O)OC1=CN(Cc2ccccc2)S(=O)(=O)c2ccccc21,inactive: 0.568%,–
Cc1cccc(CSc2cn(CC(=O)N3CCCCC3)c3ccccc23)c1,inactive: -17.2%,–
Cc1cc(C)c2sc(N(Cc3cccnc3)C(=O)CCS(=O)(=O)c3ccccc3)nc2c1,inactive: -26.4%,–
CCOC(=O)c1c(SCC(=O)Nc2nc3ccc(C)cc3s2)nc(=O)[nH]c1C,inactive: 3.06%,–
CCC(=O)N1N=C(c2ccc(OC)cc2)CC1c1cn(-c2ccccc2)nc1-c1cccs1 (centres undefined),–,inactive
CN(C)C(=N)N=C(N)N,inactive: -12.9%,–
O=C(c1cc(-c2ccc(Br)cc2)n[nH]1)N1CCN(S(=O)(=O)c2ccc(Br)cc2)CC1,–,inactive
COC(=O)CSc1nc2c(cnn2-c2ccc(F)cc2)c(=O)[nH]1,inactive: 2.7%,–
COc1ccccc1N(CC(=O)NCCSCc1ccccc1Cl)S(C)(=O)=O,–,inactive
CCOC(=O)c1cnc2ccc(C)cc2c1Nc1ccc(OCc2ccccc2Cl)cc1,inactive: 12.7%,–
CC(=O)N1c2ccc(S(=O)(=O)N3CCN(c4ccc(C)cc4C)CC3)cc2CC1C (centres undefined),inactive: 2.91%,–
O=C(Cn1ccn(-c2ccc(F)cc2)c(=O)c1=O)NCCc1ccccc1,–,inactive
CCOc1ccc(N(c2nc(-c3ccc(OC)c(OC)c3)no2)c2nc(-c3ccc(OC)c(OC)c3)no2)cc1,inactive: -12.8%,–

Structure (SMILES),"activity change, negative = inhibition",outcome
CC(C)CNC(=O)CCSc1nc(-c2ccc3c(c2)OCO3)cc(C(F)(F)F)n1,inactive: 14.1%,–
CCc1ccccc1NC(=O)Cn1ncc2c(C)n(Cc3ccccc3F)c(C)c2c1=O,–,inactive
Cc1oc(-c2cccc(Br)c2)nc1CN1CCC(C(=O)NCCc2ccc(Cl)cc2)CC1,inactive: -7.19%,–
CCOc1ccccc1NC(=O)C(CC(C)C)NS(=O)(=O)c1ccc2c(c1)CCN2C(C)=O (centres undefined),–,inactive
CCc1ccc(NC(=O)CC2C(=O)OCCN2CC)cc1 (centres undefined),–,inactive
CC(C)[C@H](N)C(=O)OCCOCn1cnc2c(=O)[nH]c(N)nc21,inactive: 3.09%,–
Cc1ccc(C)c(N2CCN(c3ccc(NC(=O)c4cccs4)cc3C(=O)O)CC2)c1,inactive: 12.6%,–
O=C(Cn1c(=O)n(Cc2nc(-c3ccccc3)no2)c(=O)c2cc3c(cc21)OCO3)Nc1ccc(Cl)cc1,inactive: 11.9%,–
CN(C)c1ccc(NC(=O)CCSc2nc(-c3ccco3)cc(C(F)(F)F)n2)cc1,inactive: -10.7%,–
CCCCN(C)S(=O)(=O)c1cc(-c2nnc3c4ccccc4c(C)nn23)ccc1C,inactive: -1.9%,–
COc1cccc(OC)c1-c1cc(C(=O)NC2(C(=O)O)C3CC4CC(C3)CC2C4)nn1-c1ccnc2cc(Cl)ccc12 (centres undefined),inactive: 12.7%,–
CCc1ccc(-n2nc(C)c3c(C)cc(=O)n(CC(=O)Nc4ccc(C)c(F)c4)c32)cc1,inactive: 10.8%,–
Cn1c(=O)n(C)c2cc(NS(=O)(=O)c3ccc(Br)cc3)c(NCc3ccccc3)cc21,inactive: 5.89%,–
CCN(CC)CCCNC(=O)c1c(C)oc2ncn(CC(C)C)c(=O)c12,inactive: -7.69%,–
NC(=O)c1ncn([C@@H]2O[C@H](CO)[C@@H](O)[C@@H]2O)n1,inactive: -12%,–
CCOc1ccc(-n2c(=O)c3c(C)c(C)sc3n(CC(=O)c3ccccc3)c2=O)cc1,inactive: -3.11%,–
CC1CCc2c(sc(NC(=O)CCCOc3ccc(C(C)(C)C)cc3)c2C(N)=O)C1 (centres undefined),inactive: 0.627%,–
COc1cc(Br)c(C2CC(=O)Nc3cc(OC)c(OC)c(OC)c32)cc1OC (centres undefined),inactive: -2.46%,–
CCCCc1nc2ccccc2n2c(-c3ccc(C)cc3)c3c(=O)n(C)c(=O)n(C)c3c12,inactive: -1.5%,–
O=S(=O)(Nc1cccc(-c2ccc(N3CCCCC3)nn2)c1)c1cccc(F)c1,–,inactive
CO[C@@H]1[C@@H](OC(N)=O)[C@@H](O)[C@H](Oc2ccc3c(O)c(NC(=O)c4ccc(O)c(CC=C(C)C)c4)c(=O)oc3c2C)OC1(C)C,inactive: -8.92%,–
COCCCNC(=O)c1cc2c(=O)n3cccc(C)c3nc2s1,–,inactive
Cc1c(C)n(Cc2ccc(Cl)cc2)c2ccc(C(=O)NCCc3ccc(S(N)(=O)=O)cc3)cc12,inactive: 17.5%,–
Nc1c(-c2nc(-c3ccc(Cl)cc3)cs2)c2ccccn2c1C(=O)c1ccc2c(c1)OCO2,inactive: 3.98%,–

Structure (SMILES),"activity change, negative = inhibition",outcome
Cc1cc(N2CCCCC2)nc2ccc(NC(=O)c3cccc(F)c3)cc12,inactive: -28.9%,–
CC1CCN(S(=O)(=O)c2ccc3c(c2)N(CC(=O)NC(C)c2ccccc2)C(=O)CO3)CC1 (centres undefined),inactive: 6.7%,–
CSc1cccc(NC(=O)CN(c2ccccc2)S(=O)(=O)N(C)C)c1,–,inactive
COc1ccc(C2C(=O)N(C3CCC(C)CC3)CC(=O)N2CCc2ccccc2)cc1OC (centres undefined),–,inactive
O=C(Cn1c(=O)n(-c2ccccc2)c(=O)c2sc3ccccc3c21)N1CCCC1,–,inactive
O=S(=O)(c1cccc(C(F)(F)F)c1)n1c(/C=C/c2ccccc2)nc2ccccc21,inactive: -16%,–
CCCN1CCN(CCCNC(=O)c2cnn(-c3ccc(F)cc3)c2-n2cccc2)CC1,inactive: -5.39%,–
CCOc1ccc(Nc2nc3ccccc3n3c(CC)nnc23)cc1,inactive: -11.1%,–
Cc1ccc(C(=O)N2CCc3cc(CNC(=O)COc4ccccc4)ccc32)cc1,–,inactive
CCCc1nnc(NC(=O)Cc2coc3cc(C)cc(C)c23)s1,inactive: 14.9%,–
COc1ccc(-c2nn3c(=O)cc(CN4CCN(C(=O)Nc5ccc(C)c(Cl)c5)CC4)nc3s2)cc1,–,inactive
O=Nc1c(-c2c(O)[nH]c3cc(Br)ccc23)[nH]c2ccccc12,inactive: -28.8%,–
O=C(NCC(c1ccco1)S(=O)(=O)c1ccc(Cl)cc1)c1ccccc1F (centres undefined),inactive: 3.81%,–
COc1ccc(CCNC(=O)c2nnc(Cc3ccc(Cl)cc3)o2)cc1OC,inactive: -2.68%,–
Cc1ccc2oc(=O)c3cnn(CC(=O)Nc4cccc(C(F)(F)F)c4)c3c2c1,–,inactive
CC(C)OCCCNC(=O)CCCn1c(SCC(=O)c2ccc(F)cc2)nc2c(sc3ccccc32)c1=O,–,inactive
O=C(Nc1ccc(Br)cc1)C1CCN(S(=O)(=O)c2cccc3nsnc23)CC1,–,inactive
CC(C)c1ccc(NC(=O)CN2C(=O)COc3ccc(S(=O)(=O)Nc4ccccc4)cc32)cc1,–,inactive
O=[N+]([O-])c1cc(-c2nc(-c3cccnc3)no2)ccc1NCc1ccccc1,inactive: 49.2%,–
CCCOC(=O)c1ccc(NC(=O)Cc2csc(C)n2)cc1,inactive: 9.14%,–
Cc1c(C(=O)NCc2ccccc2)sc2nc3n(c(=O)c12)CCC3,inactive: 18.1%,–
COCC(=O)N1c2nc(C(C)C)nn2C2(CCCCC2)[C@@H]2CCCC[C@@H]21,–,inactive
